Experimental data reported in paper PMC4336329 (PLoS ONE, 2015).
Among all 310,000 compounds or so, about 2,200 (0.71%) showed an effect of 50% or more. Effects have a minus sign here. Some of the results follow.

These molecules were tested against human ether-à-go-go-related gene (hERG) potassium channel (human, UniProt Q12809) (assay: primary screen, population patch clamp on CHO cells stably expressing hERG).
human ether-à-go-go-related gene (hERG) potassium channel, sequence (Q12809 whole entry, looked up): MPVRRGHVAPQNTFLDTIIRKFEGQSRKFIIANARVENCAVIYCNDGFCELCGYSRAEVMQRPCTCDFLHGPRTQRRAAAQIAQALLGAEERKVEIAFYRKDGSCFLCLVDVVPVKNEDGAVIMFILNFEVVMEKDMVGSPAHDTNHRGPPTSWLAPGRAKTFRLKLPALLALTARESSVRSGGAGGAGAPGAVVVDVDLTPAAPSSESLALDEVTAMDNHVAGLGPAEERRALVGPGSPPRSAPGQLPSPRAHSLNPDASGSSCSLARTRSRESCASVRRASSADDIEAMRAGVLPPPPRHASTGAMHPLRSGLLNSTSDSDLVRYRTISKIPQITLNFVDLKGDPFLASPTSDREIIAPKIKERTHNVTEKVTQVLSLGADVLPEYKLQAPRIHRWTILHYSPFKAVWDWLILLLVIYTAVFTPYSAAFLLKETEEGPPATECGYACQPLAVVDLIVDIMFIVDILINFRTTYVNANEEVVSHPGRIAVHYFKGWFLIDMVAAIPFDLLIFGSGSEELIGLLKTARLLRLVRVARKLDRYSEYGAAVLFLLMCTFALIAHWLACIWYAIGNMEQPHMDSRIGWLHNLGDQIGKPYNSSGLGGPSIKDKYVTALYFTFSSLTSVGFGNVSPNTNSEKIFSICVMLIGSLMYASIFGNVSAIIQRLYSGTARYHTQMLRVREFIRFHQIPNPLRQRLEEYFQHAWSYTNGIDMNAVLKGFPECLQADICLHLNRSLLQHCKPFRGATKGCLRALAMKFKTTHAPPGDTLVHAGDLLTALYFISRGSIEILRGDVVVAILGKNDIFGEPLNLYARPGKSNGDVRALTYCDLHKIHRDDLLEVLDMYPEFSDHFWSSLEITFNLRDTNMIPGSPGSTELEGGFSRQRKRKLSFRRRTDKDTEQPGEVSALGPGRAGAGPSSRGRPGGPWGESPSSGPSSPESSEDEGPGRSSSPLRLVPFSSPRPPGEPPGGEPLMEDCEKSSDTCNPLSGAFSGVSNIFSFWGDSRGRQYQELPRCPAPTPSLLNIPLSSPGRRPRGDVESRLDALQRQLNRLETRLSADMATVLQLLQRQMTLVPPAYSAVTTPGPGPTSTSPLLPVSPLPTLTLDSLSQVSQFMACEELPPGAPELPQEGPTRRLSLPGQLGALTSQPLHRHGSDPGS

First: O=C(CN1C(=O)NC2(CCCC2)C1=O)Nc1cc(Cl)ccc1N1CCCC1
Second: CCCN1Cc2cccc(C(=O)N3CCN(c4cc(Cl)ccc4C)CC3)c2C1=O
The “hERG current change (%, negative = inhibition) at 1uM” value of the first is higher: 1.76% for the first, -8.85% for the second.

Compared with CCOC(=O)N1CCN(C(=O)C2CCN(S(=O)(=O)N(CC)CC)CC2)CC1, O=C(OCC(=O)N1CCN(c2ccccc2)CC1)C1=COCCO1 is higher in “hERG current change (%, negative = inhibition) at 1uM” value: 4.1% for the first, 18.2% for the second.

Compared with Cc1ccc(Nc2ccc(N3CCN(c4ccc([N+](=O)[O-])cc4)CC3)nn2)cc1, COc1ccc(N2CCN(C(CNC(=O)c3ccc4c(c3)OCO4)c3ccco3)CC2)cc1 (stereo not drawn) is lower in “hERG current change (%, negative = inhibition) at 1uM” value: 16.4% for the first, 11.7% for the second.

Compared with CCc1ccc(OCC(=O)Nc2ccncc2)c(Br)c1, Cc1ccc(OCC(=O)Nc2ccc(N(C)C)cc2)cc1 is lower in “hERG current change (%, negative = inhibition) at 1uM” value: 11.8% for the first, -1.4% for the second.

Going from CCCCN1Cc2c(nc3cc(-c4ccccc4)[nH]n3c2=O)C1=O to CCN(CC)C(=O)CSc1nc(O)c(Cc2ccccc2)c(=O)n1-c1ccc(C)cc1, the “hERG current change (%, negative = inhibition) at 1uM” value rises from 12.6% to 14.3%.

Compared with O=C1CCCC2=C1C(O)(C(F)(F)F)C(=O)N2Cc1ccccc1 (stereo not drawn), CC(=O)N1CCCC1(C(=O)O)c1ccccc1 (stereo not drawn) is higher in “hERG current change (%, negative = inhibition) at 1uM” value: 0.0159% for the first, 5.88% for the second.

Going from COc1cc(/C=C/C(=O)N(Cc2ccccc2)c2ccccn2)cc(OC)c1OC to O=C(/C=C/c1ccco1)N(c1ccccn1)c1ccccn1, the “hERG current change (%, negative = inhibition) at 1uM” value falls from 10.3% to 6.44%.

Going from CCC(NC(=O)c1cc(COc2cc(C)c(Cl)c(C)c2)on1)c1ccncc1 (stereo not drawn) to Cc1cc(C)cc(OC(=O)COc2ccccc2C)c1, the “hERG current change (%, negative = inhibition) at 1uM” value rises from 7.67% to 16.8%.

Going from Cc1cccc(C(=O)NCc2nnc(SCc3ccc(F)cc3)n2C)c1 to Cc1ccc2c(c1)c(N=Nc1cccc(C(=O)O)c1)c(O)n2C, the “hERG current change (%, negative = inhibition) at 1uM” value falls from 13.8% to 6.85%.

Compared with CNC(=S)N1N=C(c2ccc(OC)cc2)CC1c1ccccc1Cl (stereo not drawn), COc1ccc(-c2cc(=O)oc3cc(OC(=O)C4CCCCC4)ccc23)cc1 is higher in “hERG current change (%, negative = inhibition) at 1uM” value: 8.31% for the first, 12.4% for the second.

Compared with Cc1ccc2cc(CCNC(=O)c3ccco3)c(=O)[nH]c2c1C, CC(=O)Nc1nc(CCC(C)C)cc2c1c(=O)oc1ccccc12 is lower in “hERG current change (%, negative = inhibition) at 1uM” value: 7.85% for the first, 6.97% for the second.

First: COCc1cc(C)nc(SCc2ccc([N+](=O)[O-])cc2)c1C#N
Second: C=C(C)CSc1nc(N)c(C#N)c(-c2ccc(C)cc2)c1C#N
The “hERG current change (%, negative = inhibition) at 1uM” value of the first is lower: 10.6% for the first, 12.8% for the second.

First: COc1ccc(/C=C2/C(=O)NC(=O)N(Cc3ccco3)C2=O)cc1
Second: Br.COc1cccc(Nc2nc(-c3cccc(N4C(=O)c5ccccc5C4=O)c3)cs2)c1
The “hERG current change (%, negative = inhibition) at 1uM” value of the first is lower: 4.94% for the first, 14.1% for the second.

First: CN(CC(=O)Nc1ccccc1Br)C(=O)CCCSc1nc2ccccc2[nH]1
Second: CC(=O)C1=C(Nc2ccccc2)CC(C)(O)C(C(C)=O)C1c1ccccc1 (stereo not drawn)
The “hERG current change (%, negative = inhibition) at 1uM” value of the first is higher: 11% for the first, 10.7% for the second.

First: CCCc1nc2ccc([N+](=O)[O-])cc2[nH]1
Second: Cc1ccc2nc(NC(=O)C3CCCN3C(=O)OC(C)(C)C)sc2c1 (stereo not drawn)
The “hERG current change (%, negative = inhibition) at 1uM” value of the first is higher: 14.5% for the first, -0.341% for the second.

Going from O=C(NCc1cccs1)C1CCCN(S(=O)(=O)c2ccc(Br)s2)C1 (stereo not drawn) to CS(=O)(=O)c1cccc(NC(=O)CSc2nnc3n2CCCCC3)c1, the “hERG current change (%, negative = inhibition) at 1uM” value rises from 5.4% to 14.6%.

First: COc1cc(OC)cc(C(=O)NC(C)c2ccc(Br)cc2)c1 (stereo not drawn)
Second: CCOc1cc(CNCc2cc(OC)cc(OC)c2)ccc1OC.O=C(O)C(=O)O
The “hERG current change (%, negative = inhibition) at 1uM” value of the first is lower: 0.576% for the first, 5.06% for the second.

Compared with CCOC(=O)C1C(=O)CC(C)(O)C(C(=O)OCC)C1c1ccc(C)s1 (stereo not drawn), CCCNC(=O)COC(=O)c1[nH]c(C)c(C(=O)OCC)c1C is higher in “hERG current change (%, negative = inhibition) at 1uM” value: 8.81% for the first, 19.6% for the second.

Going from COc1ccc(CN2CCC(Oc3cc(C(=O)NC4CC4)ccc3OC)CC2)c(O)c1 to COc1ccccc1Cn1nnc2c(=O)[nH]c(C3CCN(C(=O)c4ccc(C)cc4)CC3)nc21, the “hERG current change (%, negative = inhibition) at 1uM” value rises from -87.5% to -0.855%.

First: COc1ccc(Cc2nnc(SC(C)C(=O)Nc3ccc(C(N)=O)cc3)o2)cc1 (stereo not drawn)
Second: Clc1cccc(CNc2nnnn2-c2ccccc2)c1
The “hERG current change (%, negative = inhibition) at 1uM” value of the first is lower: -0.353% for the first, 18.3% for the second.

Going from CCCCN1CCC(O)(c2ccccc2)C(C(=O)c2ccccc2)C1 (stereo not drawn) to CCCNC(=O)OCCC12CC3CC(CC(C3)C1)C2, the “hERG current change (%, negative = inhibition) at 1uM” value falls from 12.8% to 12.5%.

First: Nc1ccc(S(=O)(=O)[O-])cn1.[Na+]
Second: Cc1nn(C(C)(C)C)c(NC(=O)c2ccc(Cl)cc2Cl)c1Br
The “hERG current change (%, negative = inhibition) at 1uM” value of the first is higher: 17.4% for the first, 10.1% for the second.

With CN=c1scc(C)n1/N=C/c1ccc(O)cc1O the “hERG current change (%, negative = inhibition) at 1uM” value was 5.87%.
